According to patent US20250313632A1:

Columns and labels:
[1] = biological target: human B7-H3 protein (human) (UniProt Q5ZPR3); test: Octet (BLI) epitope binning on captured human B7-H3; competitor CA84D
[2] = biological target: human B7-H3 protein (human) (UniProt Q5ZPR3); test: Octet (BLI) epitope binning on captured human B7-H3; competitor 72D1D11
[3] = biological target: human B7-H3 protein (human) (UniProt Q5ZPR3); test: Octet (BLI) epitope binning on captured human B7-H3; competitor AHP05562
[4] = biological target: human B7-H3 protein (human) (UniProt Q5ZPR3); test: Octet (BLI) epitope binning on captured human B7-H3; competitor AHP06345
[5] = biological target: human B7-H3 (4Ig) protein (his tag) (human) (UniProt Q5ZPR3); test: SPR (Biacore T200), antibody captured on Protein A chip, B7-H3 injected, 1:1 model

Sequence of UniProt Q5ZPR3 (Q5ZPR3 29-461): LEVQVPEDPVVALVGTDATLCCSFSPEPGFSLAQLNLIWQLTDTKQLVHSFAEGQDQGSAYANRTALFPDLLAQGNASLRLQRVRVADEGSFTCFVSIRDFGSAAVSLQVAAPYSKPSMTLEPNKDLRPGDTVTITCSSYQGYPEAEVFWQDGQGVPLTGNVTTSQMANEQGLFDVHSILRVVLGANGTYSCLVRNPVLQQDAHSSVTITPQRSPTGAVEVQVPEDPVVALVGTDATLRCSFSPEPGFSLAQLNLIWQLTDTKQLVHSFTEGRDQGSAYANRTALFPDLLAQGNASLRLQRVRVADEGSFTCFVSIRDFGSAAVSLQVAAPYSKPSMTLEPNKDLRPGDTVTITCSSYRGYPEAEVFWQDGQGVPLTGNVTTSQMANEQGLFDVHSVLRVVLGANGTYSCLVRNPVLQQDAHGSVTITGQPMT

B1: AHP06331 (antibody, V domains shown)
VH: [about 100 residues not shown]DRYYDILTGTFGYWGQGTLVTVSS
VL: EIVMTQSPDFQSVTPKEKVTITCRASQSIGSSLHWYQQKPDQSPKLLIKHASQPISGVPSRFSGSGSGTVFTLTIQSLEAEDAATYYCQQSSRLPTFGGGTKVEIQ
inhibition ratio [1]: 82.7% | inhibition ratio [2]: -8.37% | inhibition ratio [3]: -11.8% | inhibition ratio [4]: -13% | Kd [5]: 41.1 nM | koff [5]: 0.00372 s⁻¹ | kon [5]: 90600 M⁻¹ s⁻¹
